Measurements taken from the GPR68 mutational scans of Howard et al. (2025).
The least precise scores are not listed. Not listed are two conditions whose scores span a narrow range. Read del as a deletion of the residues named and ins as an insertion between two positions. For part of these data: The concentration of ogerin is not given here.

B1: GPR68, Q15743 (parent)
chain: MGNITADNSSMSCTIDHTIHQTLAPVVYVTVLVVGFPANCLSLYFGYLQIKARNELGVYLCNLTVADLFYICSLPFWLQYVLQHDNWSHGDLSCQVCGILLYENIYISVGFLCCISVDRYLAVAHPFRFHQFRTLKAAVGVSVVIWAKELLTSIYFLMHEEVIEDENQHRVCFEHYPIQAWQRAINYYRFLVGFLFPICLLLASYQGILRAVRRSHGTQKSRKDQIQRLVLSTVVIFLACFLPYHVLLLVRSVWEASCDFAKGVFNAYHFSLLLTSFNCVADPVLYCFVSETTHRDLARLRGACLAFLTCSRTGRAREAYPLGAPEASGKSGAQGEEPELLTKLHPAFQTPNSPGSGGFPTGRLA

Tests used:
[1] = variants of: B1; test: cAMP reporter score (Enrich2 score, wild type = 0); higher = more signal; HEK293T, FACS bins
[2] = variants of: B1; test: surface expression score (Enrich2 score, wild type = 0); higher = more signal; HEK293T, FACS bins

Variant | cAMP reporter score ([1]; pH 5.5) | cAMP reporter score ([1]; pH 6) | cAMP reporter score ([1]; pH 6, modulator: ogerin) | cAMP reporter score ([1]; pH 6.5, modulator: ogerin) | surface expression score [2]
Y286G | -1.15 | -0.619 | -1.34 | -1.38 | -1.03
Y286H | -1.01 | -0.483 | -1.24 | -0.898 | 0.03
Y286I | -0.549 | -1.11 | – | -1.41 | 1.37
Y286K | -1.55 | -1 | -1.52 | -1.33 | -1.88
Y286L | -0.592 | -1.92 | -1.81 | -1.45 | -0.002
Y286M | -0.773 | -0.777 | -0.935 | -1.74 | 0.462
Y286N | -0.549 | -0.271 | -1.22 | -1.19 | -1.32
Y286P | -0.82 | 0.066 | -1.09 | -0.87 | -1.39
Y286Q | -1.64 | -1.19 | -1.38 | -0.828 | -1.64
Y286R | -1.65 | -1.04 | -1.69 | -1.29 | -2.87
Y286S | -0.889 | – | -1.63 | -0.742 | -0.117
Y286T | -0.882 | -1.48 | -1.71 | -1.06 | -0.708
Y286V | -1.49 | -1.32 | -1.56 | -1.28 | 0.909
Y286W | -0.521 | -0.977 | -0.649 | -0.319 | 1.23
Y286_C287del | -1.75 | -1.21 | -1.31 | -0.593 | -1.71
Y286_C287insG | -0.646 | -0.765 | -1.27 | -1.12 | -1.8
Y286del | -0.105 | -0.58 | -1.48 | -1.02 | -1.46
C287_F288del | -1.65 | -1.08 | -0.951 | -1.54 | -1.79
C287_F288insG | -0.044 | -0.023 | -0.917 | -0.746 | -1.9
C287del | -1.6 | -0.885 | -1.72 | -1.23 | -1.55
F288del | -1.71 | -0.707 | -1.15 | -0.184 | -3.08

Variant | cAMP reporter score ([1]; pH 5.5) | cAMP reporter score ([1]; pH 6) | cAMP reporter score ([1]; pH 6, modulator: ogerin) | cAMP reporter score ([1]; pH 6.5, modulator: ogerin) | surface expression score [2]
V289_E291del | -0.838 | 0.189 | -0.1 | -0.634 | –
V289_S290del | -1.7 | -1.57 | -2.09 | -1.81 | -1.88
V289_S290insGS | -1.31 | -0.708 | -1.69 | -0.91 | -0.082
S290_E291insG | -0.6 | -1.53 | -1.53 | -1.6 | 0.537
E291_T292insG | -1.96 | -1.18 | -0.59 | -1.92 | 0.496
E291_T293del | -1.37 | -0.666 | -1.44 | -0.849 | 0.021
E291del | -0.516 | -0.755 | -1.26 | -0.541 | -0.336
T292A | 0.592 | -0.069 | 0.31 | -0.055 | 0.003
T292C | 0.012 | -0.381 | -0.581 | -0.349 | -0.035
T292D | -0.706 | -0.499 | -1.32 | -1.71 | 0.155
T292E | 0.811 | -0.017 | 0.346 | -0.215 | 0.483
T292F | 0.141 | 1.48 | 0.289 | -0.494 | 0.414
T292G | -0.256 | -0.356 | -0.209 | -0.269 | 0.245
T292H | -0.907 | -0.51 | -0.367 | -1.62 | -0.049
T292I | -0.454 | -0.446 | – | -1.48 | -0.686
T292K | -0.848 | -0.677 | -0.368 | -1.06 | -0.146
T292L | 0.566 | -0.445 | 0.414 | 0.088 | -0.985
T292M | 1.49 | – | 0.936 | 0.193 | 0.701
T292N | 0.413 | -0.79 | 0.255 | -0.306 | 1.26
T292P | -1.28 | -0.67 | -2.14 | -0.855 | -0.491
T292Q | 0.127 | – | 1.26 | – | 0.282

Variant | cAMP reporter score ([1]; pH 5.5) | cAMP reporter score ([1]; pH 6) | cAMP reporter score ([1]; pH 6, modulator: ogerin) | cAMP reporter score ([1]; pH 6.5, modulator: ogerin) | surface expression score [2]
T292R | 0.239 | -0.515 | 0.379 | 0.544 | -0.512
T292S | -0.419 | -0.454 | -0.115 | -0.371 | 0.499
T292V | 0.469 | 0.006 | 0.281 | 0.614 | -0.028
T292W | 0.865 | – | 0.304 | 0.603 | 0.568
T292Y | -0.234 | 1.66 | -0.107 | -0.683 | -0.345
T292_T293insG | -1.95 | -1.12 | -1.19 | -0.234 | 0.207
T292_T293insGSG | -1.73 | -1.32 | -1.53 | -1.21 | -0.147
T293_H294insGS | -0.44 | – | -1.14 | 0.227 | -0.312
T293_H294insGSG | -1.09 | -0.806 | -0.466 | -0.847 | -0.248
H294_R295insG | -1.6 | -1.4 | -0.461 | -1.06 | -0.134
R295_D296del | -0.525 | -0.916 | -0.727 | -0.729 | -0.292
R295_D296insGS | -0.978 | -0.08 | -0.852 | -1.08 | -0.243
D296_L297del | -0.845 | -0.575 | -1.47 | -1.4 | -0.855
D296_L297insGS | -0.867 | -0.754 | -0.983 | -0.432 | 1.16
L297_R299del | -0.504 | 0.026 | -0.885 | -0.668 | 0.458
L297del | -1.36 | -0.694 | -1.82 | -1.2 | -0.548
A298del | -0.652 | – | -0.492 | -0.481 | -0.901
R299A | 0.39 | -0.624 | -0.121 | -0.515 | 0.44
R299C | 0.368 | -0.372 | -0.25 | -0.643 | -0.412
R299D | 0.353 | -0.458 | 0.258 | -0.485 | 0.547
